What is called pIC50 is the negative decadic logarithm of the IC50, by convention in mol/L.

pIC50: −log10 of the molar value.

Chain of UniProt O14744 (O14744 whole entry): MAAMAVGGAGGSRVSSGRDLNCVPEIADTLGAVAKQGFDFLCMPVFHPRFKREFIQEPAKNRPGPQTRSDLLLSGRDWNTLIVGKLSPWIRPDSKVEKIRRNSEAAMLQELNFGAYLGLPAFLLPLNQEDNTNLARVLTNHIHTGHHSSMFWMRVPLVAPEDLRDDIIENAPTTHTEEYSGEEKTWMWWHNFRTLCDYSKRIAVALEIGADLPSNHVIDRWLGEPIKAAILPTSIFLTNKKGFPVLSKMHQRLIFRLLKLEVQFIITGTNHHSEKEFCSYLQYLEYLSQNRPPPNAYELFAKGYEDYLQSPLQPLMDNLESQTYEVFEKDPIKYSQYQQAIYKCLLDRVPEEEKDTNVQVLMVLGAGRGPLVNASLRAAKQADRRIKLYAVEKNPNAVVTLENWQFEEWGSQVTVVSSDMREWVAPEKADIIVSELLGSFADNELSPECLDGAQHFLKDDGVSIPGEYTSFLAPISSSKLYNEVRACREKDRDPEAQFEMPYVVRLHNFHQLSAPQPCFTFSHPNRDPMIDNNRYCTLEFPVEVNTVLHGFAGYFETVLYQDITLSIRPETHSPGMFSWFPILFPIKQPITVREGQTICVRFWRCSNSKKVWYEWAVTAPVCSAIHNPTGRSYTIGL
Chain of UniProt O14744 (Q9BQA1 whole entry partner): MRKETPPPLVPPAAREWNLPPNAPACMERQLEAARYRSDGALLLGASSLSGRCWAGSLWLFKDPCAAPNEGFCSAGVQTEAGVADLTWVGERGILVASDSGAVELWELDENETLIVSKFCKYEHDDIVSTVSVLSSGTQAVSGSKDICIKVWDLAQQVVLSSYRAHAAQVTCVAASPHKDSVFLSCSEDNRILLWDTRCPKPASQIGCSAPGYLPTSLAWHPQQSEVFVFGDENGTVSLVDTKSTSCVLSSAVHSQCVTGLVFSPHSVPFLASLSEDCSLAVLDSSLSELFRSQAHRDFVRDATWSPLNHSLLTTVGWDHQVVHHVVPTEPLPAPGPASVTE

For the experiment, the target named is PRMT5/MEP50 Complex (Homo sapiens (Human), UniProt O14744). As to the kind of experiment: PRMT5 inhibition based on TR-FRET assay. It counts as biochemical. The following applies: 32 nM PRMT5:MEP50, 50 nM Histone-H4 peptide, 1 μM SAM. The text has this: PRMT5 Inhibition Based on TR-FRET Assay:
Protein arginine methyltransferase 5 (PRMT5) is a type II arginine methyltransferase that catalyze mono- and symmetric demethylation on arginine residues of histone or non-histone proteins in presence of S-adenosylmethionine (AdoMet or SAM) a cofactor responsible for donating the methyl group. PRMT5 is reported to be overexpressed in several human cancers. To identify compounds that inhibit the PRMT5 and decrease its activity, a TR-FRET based assay has been established. Time-resolved fluorescence resonance energy transfer (TR-FRET) HTS assays are homogeneous proximity assays where the interaction of two dye-labeled binding partners is detected by the energy transfer between a donor and an acceptor dye and the subsequent light emission by the acceptor dye. PRMT5 catalyzes Histone H4 peptide which is biotin tagged to the Lysine amino acid at carboxyl end, in presence of S-adenosyl-1-methionine (SAM) to methylate the peptide. The antibody specific to mono methylated H4 peptide (H4R3) with Ig conjugate binds to the methylated peptide, indirectly binding to the Europium lanthanide. SureLight Allophycocyanin-Streptavidin binds to the biotin tag of the peptide, therefore accepting the energy transferred from the Europium lanthanide. This energy transfer between Europium to SureLight Allophycocyanin is a direct measure of the activity/inhibition of the PRMT5 enzyme.
Assay buffer: 20 mM BICINE (pH 7.6), 25 mM NaCl, 2 mM DTT, 0.01% Tween-20 and 0.01% BSA.
The compound dilutions were prepared as 7.5% DMSO stock solutions in assay buffer. To 2 μL (7.5×) of test compound, 5 μL of PRMT5 enzyme prepared in assay buffer (Final concentration of 32 nM in 15 μL reaction volume) was added and allowed for 30 minutes pre-incubation time in a white polystyrene 384-well plate at room temperature. […] The plates were then read on Victor-3 with Excitation at 340 nm and Emissions collected at 615 and 665 nm in TR-FRET protocol. […]
On the technique in general: Time-resolved FRET reads energy transfer from a long-lived donor to a nearby acceptor.
As for `O=C1N(Cc2ccccc2)CCN1CC(O)CN1CCc2ccccc2C1` (stereo not drawn) [Example 20, 1-benzyl-3-(3-(3,4-dihydroisoquinolin-2(1H)-yl)-2-hydroxypropyl)imidazolidin-2-one], the pIC50 was 6.19.
Compound `N#Cc1ccc(CN2C(=O)CN(CC(O)CN3CCc4ccccc4C3)C2=O)cc1` (stereo not drawn) [Example 23, 4-((3-(3-(3,4-dihydroisoquinolin-2(1H)-yl)-2-hydroxypropyl)-2,5-dioxoimidazolidin-1-yl)methyl)benzonitrile] showed a pIC50 of 6.72.
Compound `O=C1N(Cc2ccc(Cl)nc2)CCN1CC(O)CN1CCc2ccccc2C1` (stereo not drawn) [Example 25, 1-((6-Chloropyridin-3-yl)methyl)-3-(3-(3,4-dihydroisoquinolin-2(1H)-yl)-2-hydroxypropyl)imidazolidin-2-one] showed a negative logarithm of the IC50 (pIC50) of 5.71. Compared with the last compound, the pIC50 is 1.01 log units lower.

Values taken from US11365205B2 (Aurigene Discovery Technologies Limited, priority 2018, dated 2022).
